The whole screen tested about 45,000 compounds, of which about 200 (0.44%) were called active. About 7% were inconclusive and are not listed. The call rests on the fitted dose curve; in most records, active means well fitted activation curve with a large enough effect; inconclusive means small, poorly fitted or top-dose-only effect; inactive means no such curve, though single readings can be large or run the other way. This is one part of the list.

Results on 58 molecules are retold here after PubChem BioAssay AID1347073 (National Center for Advancing Translational Sciences (NCATS), 2019).

This test is described as follows: qHTS of TDP-43 Inhibitors: NCGC Sytravon Library Screen. Further: 0% is about no effect; nearly all actives have a fitted effect of over 55% in size. Conditions: yeast TDP-43 toxicity rescue, BacTiter-Glo growth, 24 h; at 46.1 µM (top of the series). An excerpt:
The goal of this project is to identify new chemical probes capable of reversing the toxicity associated with TDP-43 which is associated with frontotemporal lobar degeneration and amyotrophic lateral sclerosis. These compounds will provide a complementary approach to deciphering the tangled mechanisms of toxicity and protection that we have uncovered through genome-wide genetic screens and are beginning to uncover in a large-scale proteomics analysis with mass spectroscopy. To this end, a miniaturized assay was developed to be screened against the Molecular Libraries Small Molecule Repository (MLSMR) to discover TDP-43 inhibitors. Please note that in the set-up this yeast-based assay compounds that inhibit as TDP-43, have a read-out as activators. NIH Chemical Genomics Center [NCGC] NIH Molecular Libraries Probe Centers Network [MLPCN] Assay Submitter (PI): Susan Lindquist, Whitehead Institute/MIT MLPCN Grant: R21 NS060957
Dispense 2.5 microL yeast galactose medium per 1536-well plate, pin compound, dispense 2.5 microL TDP-43 expressing yeast in galactose medium at OD600=0.02 (pregrown in raffinose medium to mid-log phase) per well, incubate for 24 hr at 30 deg C, and cell growth will be measured using 5 microL of Bactiter/Glo reagent to entire plate and read using Luminescence Protocol in ViewLux.
Turning to `O=C1CCN(C(=O)Cc2ccccc2[N+](=O)[O-])CC1`, the growth rescue (activation) is inactive: 1.61%.

Regarding `CSc1ncc(/C=C2/C(=O)NC(=O)N(c3ccc(Cl)cc3)C2=O)cn1`, the growth rescue (activation) was inactive: -6.63%.

As for `CCN1CCN(c2ccc([N+](=O)[O-])cc2C#N)CC1`, the growth rescue (activation) is inactive: 8.26%.

With `COc1ccccc1C(=O)Nc1ccc2c(c1)CC1(C(=O)N(C)C(=O)N(C)C1=O)C1CCCN21` (stereo not drawn), the growth rescue (activation) was inactive: 5.89%.

Take `Cc1cc(C)cc(N2C(=O)NC(=O)/C(=C/c3cccn3-c3ccc(Cl)cc3)C2=O)c1`: the growth rescue (activation) was inactive: -10.4%.

For the molecule `COc1ccccc1OP(=O)(Nc1cccnc1)Oc1ccccc1OC`, the growth rescue (activation) was inactive: 23.9%.

For the molecule `C[C@]12C[C@@H](O)[C@H](O)CC1=CCC1C2CC[C@@]2(C)C1CC[C@@H]2O` (stereo partly drawn), the growth rescue (activation) was inactive: -11.7%.

With `O=C1NC(=O)N(c2ccc3c(c2)OCO3)C(=O)/C1=C\c1ccc(-c2ccccc2C(=O)O)o1`, the growth rescue (activation) is inactive: -0.718%.

On to `CCOP(=O)(OCC)C1(O)C(=O)Nc2ccccc21` (stereo not drawn), for which the growth rescue (activation) was inactive: -0.269%.

On to `CN(C)c1ccc(NC(=O)CN2C(=O)CN=C(c3ccccc3)c3ccccc32)cc1`, for which the growth rescue (activation) was inactive: -0.335%.

In the case of `Cc1cccc(C)c1OCC(=O)Nc1ccc(Cl)cc1C(=O)c1ccccc1`, the growth rescue (activation) is inactive: 21.8%.

Take `CCOc1cc(CNCCc2cccc(F)c2)ccc1OC`: the growth rescue (activation) was inactive: -11.2%.

Take `O=C(N/N=C/c1c(O)n(Cc2ccccc2)c(=O)[nH]c1=O)c1ccccc1`: the growth rescue (activation) is inactive: 2.77%.

Consider `Cc1ccc(N2C(=O)NC(=O)/C(=C\c3cc(C)n(-c4ccc(C(=O)O)cc4)c3C)C2=O)cc1`, for which the growth rescue (activation) is inactive: 0.758%.

In the case of `O=c1c2ccccc2nc(-c2cccs2)n1-c1ccccc1`, the growth rescue (activation) was inactive: 5.51%.

For `O=c1c2ccccc2nc(CNc2ccccc2)n1-c1ccccc1`, the growth rescue (activation) is inactive: 26.1%.

With `Cc1cccc(N2C(=O)NC(=O)/C(=C\c3ccc(N4CCOCC4)cc3)C2=O)c1`, the growth rescue (activation) is inactive: 16.8%.

In the case of `C[C@]12CCC3C(CC[C@H]4[C@H](O)[C@H](O)CC[C@]34C)C1CC[C@@H]2O` (stereo partly drawn), the growth rescue (activation) is inactive: 14.2%.

Take `Oc1cc2c(cc1CN1CCN(c3ccc(F)cc3)CC1)OCO2`: the growth rescue (activation) was inactive: 8.49%.

On to `CC(=O)[C@H]1CCC2C3CC[C@H]4C[C@@H](O)CC[C@]4(C)C3CC[C@@]21C` (stereo partly drawn), for which the growth rescue (activation) is inactive: -10.8%.

Take `CN1C(=O)NC(=O)/C(=C\c2ccc([N+](=O)[O-])o2)C1=O`: the growth rescue (activation) was inactive: 0.911%.

Consider `O=c1[nH]c(O)c(N=Nc2ccc([N+](=O)[O-])cc2)c(=O)[nH]1`, for which the growth rescue (activation) is inactive: -2.71%.

Regarding `CCC(=O)N1CC(=O)Nc2ccc(Br)cc2C1c1ccccc1` (stereo not drawn), the growth rescue (activation) is inactive: -16.4%.

As to `COC(=O)C1C2c3ccccc3OC1(C)N=c1s/c(=C/c3cnn(C)c3C)c(=O)n12` (stereo not drawn), the growth rescue (activation) was inactive: 24.3%.

On to `O=C1/C(=C/c2cccc([N+](=O)[O-])c2)N2CCC1CC2`, for which the growth rescue (activation) is inactive: -0.766%.

In the case of `Oc1ccccc1C1NCc2ccccc2-n2cccc21` (stereo not drawn), the growth rescue (activation) is inactive: -11.1%.

For `C[C@]1(O)CCC2C3CC[C@H]4C[C@@H](OC(=O)CNC(=O)CN)CC[C@]4(C)C3CC[C@@]21C` (stereo partly drawn), the growth rescue (activation) was inactive: 17.7%.

Consider `COc1cccc(C(=O)C2CCCN(Cc3ccc4nonc4c3)C2)c1` (stereo not drawn), for which the growth rescue (activation) is inactive: 14.3%.

Consider `COc1ccc(C(=O)C2CCCN(Cc3ccon3)C2)cc1OC` (stereo not drawn), for which the growth rescue (activation) is inactive: -22.8%.

As to `CCC(C)N1CCN(C(=O)COc2ccc3ccccc3c2)CC1` (stereo not drawn), the growth rescue (activation) is inactive: -6.67%.

Consider `C[C@]12CCC3C(CC[C@H]4[C@@H](O)[C@H](O)CC[C@]34C)C1CCC2=O` (stereo partly drawn), for which the growth rescue (activation) is inactive: 26.5%.

For the molecule `CCOP(=O)(Cc1cc(C#N)oc1C)OCC`, the growth rescue (activation) was inactive: 9.87%.

With `CCc1ccccc1NC(=O)CNCc1ccccc1`, the growth rescue (activation) was inactive: 6.91%.

As to `CCCCCCn1c(O)c(C=NCCN2CCCCC2)c(=O)[nH]c1=O`, the growth rescue (activation) is inactive: 6.75%.

`COc1cc(C=C2C(=O)NC(=O)NC2=O)ccc1OS(=O)(=O)c1ccccc1[N+](=O)[O-]`: the growth rescue (activation) is inactive: 5.85%.

Turning to `Nc1cc(Cl)c2nonc2c1[N+](=O)[O-]`, the growth rescue (activation) is inactive: 22.1%.

With `O=[N+]([O-])c1ccc(NC2CCCC2)c2ccncc12`, the growth rescue (activation) is inactive: 27.9%.

As to `O=C(Cn1cc(C(=O)c2ccccc2)c2ccccc21)Nc1ccc(Br)cc1`, the growth rescue (activation) is inactive: 7.75%.

`COC(=O)C1=Nc2ccccc2/C1=C\c1c(O)n(-c2ccc(Br)cc2)c(=O)[nH]c1=O`: the growth rescue (activation) is inactive: 1.3%.

As for `O=c1[nH]c(=O)n(-c2ccc(F)cc2)c(O)c1C=NCCN1CCCCC1`, the growth rescue (activation) was inactive: 4.51%.

For `COc1ccccc1CCNC1CCCC(C)C1` (stereo not drawn), the growth rescue (activation) is inactive: 6.9%.

For `CCN(CC)c1nc2c(C)cccn2c(=O)c1C=C1C(=O)NC(=O)NC1=O`, the growth rescue (activation) was inactive: -7.25%.

For `CN(C)S(=O)(=O)c1cc(NC(=O)COC(=O)Cc2ccccc2)ccc1Cl`, the growth rescue (activation) was inactive: -11.9%.

Consider `C[C@]12CCC3C(CC[C@H]4C[C@@H](O)CC[C@]34C)C1C[C@@H](O)[C@H]2O` (stereo partly drawn), for which the growth rescue (activation) is inactive: 20.4%.

For `COc1ccc(N2CC2c2ccncc2)cc1` (stereo not drawn), the growth rescue (activation) was inactive: 0.0516%.

For `O=C1Nc2ccccc2/C1=C/c1nc2ccccc2c(=O)n1-c1ccc(O)cc1`, the growth rescue (activation) is inactive: -10.8%.

In the case of `CCN1CCN(C(=O)COc2ccc(S(=O)(=O)Nc3ccc(Cl)cc3)cc2)CC1`, the growth rescue (activation) is inactive: 5.69%.

For the molecule `CCN(CC)CCN=Cc1c(O)n(Cc2ccccc2)c(=O)[nH]c1=O`, the growth rescue (activation) was inactive: -4.43%.

On to `NC(=O)Cn1cc(C=C2C(=O)NC(=O)NC2=O)c2ccccc21`, for which the growth rescue (activation) is inactive: 4.21%.

Regarding `CNC(C(=O)c1ccccc1)C(OC)c1ccc(C)cc1` (stereo not drawn), the growth rescue (activation) was inactive: 1.46%.

Regarding `COc1ccc(N2CCN(CCc3ccncc3)CC2)cc1`, the growth rescue (activation) is inactive: -1.54%.

As to `NC(Cc1ccccc1)c1csc(Nc2ccccn2)n1` (stereo not drawn), the growth rescue (activation) was inactive: 13.8%.

Turning to `O=C(Nc1ccccc1)c1cc([N+](=O)[O-])ccc1N1CCNCC1`, the growth rescue (activation) is inactive: 7.27%.

Turning to `CN1CC(C(=O)c2ccc(Cl)cc2)C(c2ccc(N(C)C)cc2)C1` (stereo not drawn), the growth rescue (activation) was inactive: 8.53%.

For the molecule `Cc1ccsc1C(=O)C1CCCN(Cc2cccc(-n3cccn3)c2)C1` (stereo not drawn), the growth rescue (activation) is inactive: 2.85%.

`CC1(C)OC(c2ccccc2)=C/C(=C/C=C2C(=O)NC(=O)NC2=O)O1`: the growth rescue (activation) was inactive: -19.6%.

Consider `O=[N+]([O-])c1ccc(CN2CC=C(c3ccccc3)CC2)cc1`, for which the growth rescue (activation) was inactive: 10.7%.

Take `CN(C)S(=O)(=O)c1cc(NC(=O)C[N+]23CCN(CC2)CC3)ccc1Cl`: the growth rescue (activation) was inactive: -8.01%.
